From paper PMC11995724, “Antibiotic target discovery by integrated phenotypic and activity-based profiling of electrophilic fragments” (Cell chemical biology, 2025)
About 110 (3.4%) of roughly 3,200 compounds showed an effect of 50% or more. The list shows a part of the results.

Test system: T1, V. cholerae SAD30
T1 construct: SAD30
Design: species or system S. aureus MSSA476 (TSB) or V. cholerae SAD30 (LB); 384-well bacterial growth screen at 25 uM, OD600 relative to DMSO control
Conditions: relative growth, OD600, LB; 25 µM; inhibitor

Structure (SMILES) | % of control remaining
CC(Cl)C(=O)NC(Cc1ccccc1)c1ncco1 (stereo not shown) [7-E12, 2-chloro-N-[1-(1,3-oxazol-2-yl)-2-phenylethyl]propanamide] | 75.2024%
CC(C)N(Cc1ccc(N(C)C)cc1)C(=O)CCl [5-E06, 2-chloro-N-{[4-(dimethylamino)phenyl]methyl}-N-(propan-2-yl)acetamide] | 100.2%
COc1ccc(C=C(C#N)C(=O)NCc2ccco2)cc1 [8-J12, 2-cyano-N-[(furan-2-yl)methyl]-3-(4-methoxyphenyl)prop-2-enamide] | 65.1937%
COc1cc(C=C(C#N)C(=O)Nc2cccc3ncccc23)ccc1O [9-F22, 2-cyano-3-(4-hydroxy-3-methoxyphenyl)-N-(quinolin-5-yl)prop-2-enamide] | 95.7852%
CSc1cccc(-n2c(C)cc(C(=O)CCl)c2C)c1 [10-J16, 2-chloro-1-{2,5-dimethyl-1-[3-(methylsulfanyl)phenyl]-1H-pyrrol-3-yl}ethan-1-one] | 105.825%
C=CC(=O)N(CC)c1cccc(C)c1 [1-A10, N-ethyl-N-(3-methylphenyl)prop-2-enamide] | 85.5007%
O=C(CCl)NC(c1ccc(F)cc1)c1cccs1 (stereo not shown) [4-K18, 2-chloro-N-[(4-fluorophenyl)(thiophen-2-yl)methyl]acetamide] | 102.998%
CCCCNC(=O)C(C#N)=Cc1ccc(F)cc1F [8-H14, N-butyl-2-cyano-3-(2,4-difluorophenyl)prop-2-enamide] | 65.1937%
C=CC(=O)NC1c2cccc(F)c2CCC1C (stereo not shown) [1-B21, N-(5-fluoro-2-methyl-1,2,3,4-tetrahydronaphthalen-1-yl)prop-2-enamide] | 89.8356%
CCc1cccc(NC(=O)CCl)c1 [4-F04, 2-chloro-N-(3-ethylphenyl)acetamide] | 110.589%
O=C(CCl)Nc1ccc(Cl)c(C(F)(F)F)c1 [4-I09, 2-chloro-N-[4-chloro-3-(trifluoromethyl)phenyl]acetamide] | 86.6077%
C=CC(=O)N1CCC(C(=O)NC(C)(c2noc(C)n2)C2CC2)CC1 (stereo not shown) [2-B10, N-[1-cyclopropyl-1-(5-methyl-1,2,4-oxadiazol-3-yl)ethyl]-1-(prop-2-enoyl)piperidine-4-carboxamide] | 89.4239%
CC(Cl)C(=O)N(C)C1CS(=O)(=O)c2ccc(Cl)cc21 (stereo not shown) [7-M14, 2-chloro-N-(5-chloro-1,1-dioxo-2,3-dihydro-1lambda6-benzothiophen-3-yl)-N-methylpropanamide] | 76.6562%
C=CC(=O)NCC1CCCCN1S(C)(=O)=O (stereo not shown) [1-D17, N-[(1-methanesulfonylpiperidin-2-yl)methyl]prop-2-enamide] | 107.025%
C=CC(=O)Nc1c(C)ccc(Cl)c1CO [1-O03, N-[3-chloro-2-(hydroxymethyl)-6-methylphenyl]prop-2-enamide] | 100.448%
COc1cc(C=C(C#N)C(=O)Nc2ccc(F)cc2)cc(Cl)c1O [8-H07, 3-(3-chloro-4-hydroxy-5-methoxyphenyl)-2-cyano-N-(4-fluorophenyl)prop-2-enamide] | 73.7593%
C=CC(=O)Nc1cnn(CCN2CCCC2=O)c1 [3-M18, N-{1-[2-(2-oxopyrrolidin-1-yl)ethyl]-1H-pyrazol-4-yl}prop-2-enamide] | 97.2064%
COc1ccc(-c2nn(-c3ccccc3)cc2C=C(C#N)C(N)=O)cc1 [8-L16, 2-cyano-3-[3-(4-methoxyphenyl)-1-phenyl-1H-pyrazol-4-yl]prop-2-enamide] | 71.7199%
C=CC(=O)NCc1ccccc1S(=O)(=O)N1CCCC1 [2-L17, N-{[2-(pyrrolidine-1-sulfonyl)phenyl]methyl}prop-2-enamide] | 85.564%
CCc1cccc2c(C(=O)CCl)c[nH]c12 [10-C12, 2-chloro-1-(7-ethyl-1H-indol-3-yl)ethan-1-one] | 24.3133%
Cc1cc(C)c(-c2csc(NC(=O)CCl)n2)cc1C [4-G17, 2-chloro-N-[4-(2,4,5-trimethylphenyl)-1,3-thiazol-2-yl]acetamide] | 91.7835%
N#CC(=Cc1cccc2ccccc12)C(=O)NCc1ccco1 [8-N15, 2-cyano-N-[(furan-2-yl)methyl]-3-(naphthalen-1-yl)prop-2-enamide] | 75.3909%
C=CC(=O)NCCc1ccc(S(N)(=O)=O)cc1 [2-B13, N-[2-(4-sulfamoylphenyl)ethyl]prop-2-enamide] | 91.1223%

Structure (SMILES) | % of control remaining
O=C(CCl)NC1CCCCCC1 [5-H16, 2-chloro-N-cycloheptylacetamide] | 96.6691%
C=CC(=O)N1CCC(C(=O)Nc2ccc(N)c([N+](=O)[O-])c2)CC1 [3-E20, N-(4-amino-3-nitrophenyl)-1-(prop-2-enoyl)piperidine-4-carboxamide] | 94.5598%
O=C(CCl)Nc1ccc2c(c1)oc1ccccc12 [6-A13, 2-chloro-N-{8-oxatricyclo[7.4.0.0,2,7]trideca-1(9),2(7),3,5,10,12-hexaen-5-yl}acetamide] | 88.8805%
Cc1ccc(S(=O)(=O)N2CCSSCC2)c(F)c1 [10-L09, 5-(2-fluoro-4-methylbenzenesulfonyl)-1,2,5-dithiazepane] | 81.3559%
O=C(CCl)NCC(=O)Nc1ccc(F)c(F)c1 [4-L16, 2-chloro-N-{[(3,4-difluorophenyl)carbamoyl]methyl}acetamide] | 105.24%
O=C(CCl)NCCc1ccc(Cl)cc1 [4-O12, 2-chloro-N-[2-(4-chlorophenyl)ethyl]acetamide] | 96.4417%
CC1CCCCC1NC(=O)C(C#N)=CC=Cc1ccccc1[N+](=O)[O-] (stereo not shown) [8-F12, 2-cyano-N-(2-methylcyclohexyl)-5-(2-nitrophenyl)penta-2,4-dienamide] | 66.5534%
CC(=O)Nc1ccc(C(=O)CCl)cc1 [10-O12, N-[4-(2-chloroacetyl)phenyl]acetamide] | 74.4983%
CC(Cl)C(=O)N(C)C(C)c1ccccc1N1CCCS1(=O)=O (stereo not shown) [6-D05, 2-chloro-N-{1-[2-(1,1-dioxo-1lambda6,2-thiazolidin-2-yl)phenyl]ethyl}-N-methylpropanamide] | 91.1556%
CC(O)CN(Cc1ccc(Cl)c(F)c1)C(=O)CCl (stereo not shown) [5-K12, 2-chloro-N-[(4-chloro-3-fluorophenyl)methyl]-N-(2-hydroxypropyl)acetamide] | 90.2806%
COc1ccc(NC(=O)C(C#N)=Cc2c(C)n[nH]c2C)cc1 [8-I04, 2-cyano-3-(3,5-dimethyl-1H-pyrazol-4-yl)-N-(4-methoxyphenyl)prop-2-enamide] | 78.518%
C=CCNC(=O)C(C#N)=Cc1ccc2c(c1)OCCO2 [9-L06, 2-cyano-3-(2,3-dihydro-1,4-benzodioxin-6-yl)-N-(prop-2-en-1-yl)prop-2-enamide] | 87.4915%
Cc1ccc2nc(-c3ccc(F)cc3)c(CNC(=O)C(C)Cl)n2c1 (stereo not shown) [5-D21, 2-chloro-N-{[2-(4-fluorophenyl)-6-methylimidazo[1,2-a]pyridin-3-yl]methyl}propanamide] | 81.7064%
COc1ccccc1NC(=O)C(C#N)=Cc1cc(C)c(C)cc1C [9-A10, 2-cyano-N-(2-methoxyphenyl)-3-(2,4,5-trimethylphenyl)prop-2-enamide] | 89.259%
CC(NC(=O)C(C#N)=Cc1ccc2c(c1)OCCO2)c1ccccc1 (stereo not shown) [8-M15, 2-cyano-3-(2,3-dihydro-1,4-benzodioxin-6-yl)-N-(1-phenylethyl)prop-2-enamide] | 73.0795%
N#CC(=Cc1ccccc1)C(=O)Nc1ccccc1-c1ccccc1 [8-A15, N-{[1,1'-biphenyl]-2-yl}-2-cyano-3-phenylprop-2-enamide] | 83.0048%
CCc1ccccc1NC(=O)CNC(=O)CCl [4-I08, 2-chloro-N-{[(2-ethylphenyl)carbamoyl]methyl}acetamide] | 103.515%
CCCc1ccc(NC(=O)CCl)cc1 [6-I22, 2-chloro-N-(4-propylphenyl)acetamide] | 109.053%
C=CC(=O)NCC1CCN(c2ccccc2)C1 (stereo not shown) [3-B17, N-[(1-phenylpyrrolidin-3-yl)methyl]prop-2-enamide] | 107.44%
CCOc1cccc(N2CCN(C(=O)C(C)Cl)CC2)n1 (stereo not shown) [7-G07, 2-chloro-1-[4-(6-ethoxypyridin-2-yl)piperazin-1-yl]propan-1-one] | 71.5017%
C=CC(=O)N1CCC(C(=O)NCc2ccc(C(N)=O)cc2)CC1 [3-J08, N-[(4-carbamoylphenyl)methyl]-1-(prop-2-enoyl)piperidine-4-carboxamide] | 94.5598%
Cc1ccc(NC(=O)C(C#N)=Cc2cccc(F)c2)cc1 [8-F11, 2-cyano-3-(3-fluorophenyl)-N-(4-methylphenyl)prop-2-enamide] | 65.0578%
Cc1cccc(CN(C(=O)CCl)C(C)C)c1 [6-J05, 2-chloro-N-[(3-methylphenyl)methyl]-N-(propan-2-yl)acetamide] | 95.5541%
